According to the supplement of paper PMC7826260:
Some of the results follow. Each Rep nickase domain was tested in vitro on the same pool of single strands (3 µM enzyme, 1 h, 37 °C); shown is the middle of each 90-letter strand. The score is log2 (uncut reads / reads without enzyme); strong cutting gives strongly negative numbers. There is no active / inactive call. Reads are scaled to the total, so uncut sequences can rise above 0 when many others are cut.

Key:
Test in all cases: uncleaved DNA left, log2 of reads against the no-enzyme library (log2 ratio); higher = less cleavage (more negative = more Rep cleavage of the k-mer); sequences stand for … in CTCGTCCG…ACCGGAGA
[1] = tested on: T1, Rep nickase domain of Muscovy duck circovirus
T1 sequence (protein, residues 1-111, tag omitted): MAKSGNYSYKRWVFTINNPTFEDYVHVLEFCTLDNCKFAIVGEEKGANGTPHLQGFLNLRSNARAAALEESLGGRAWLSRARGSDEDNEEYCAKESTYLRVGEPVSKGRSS
Description: (§1)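 A pool of 90-nt single-stranded DNAs with seven random bases just before the constant AC of the nick site (name = the seven bases) was cut by 3 µM recombinant His6-SUMO-tagged Rep nickase domain (300 nM DNA, 50 mM HEPES pH 8.0, 50 mM NaCl, 1 mM MnCl2, 1 h, 37 °C, three replicates). Uncut DNA was amplified and sequenced.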

[2] = tested on: T2, Rep nickase domain of banana bunchy top virus
T2 sequence (protein, residues 1-94, tag omitted): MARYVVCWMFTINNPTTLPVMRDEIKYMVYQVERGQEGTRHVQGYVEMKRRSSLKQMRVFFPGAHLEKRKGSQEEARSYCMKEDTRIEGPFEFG
Description: as §1

[3] = tested on: T3, Rep nickase domain of cabbage leaf curl virus
T3 sequence (protein, residues 1-116, tag omitted): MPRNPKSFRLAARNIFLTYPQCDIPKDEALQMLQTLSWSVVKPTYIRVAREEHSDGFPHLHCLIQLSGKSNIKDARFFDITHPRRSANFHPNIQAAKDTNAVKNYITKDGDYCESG
Description: as §1

[4] = tested on: T4, Rep nickase domain of chickpea chlorotic dwarf virus
T4 sequence (protein, residues 1-124, tag omitted): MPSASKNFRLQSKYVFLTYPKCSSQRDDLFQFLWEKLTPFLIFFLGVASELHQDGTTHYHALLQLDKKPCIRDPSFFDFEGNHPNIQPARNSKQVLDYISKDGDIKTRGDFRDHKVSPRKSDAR
Description: as §1

[5] = tested on: T5, Rep nickase domain of faba bean necrotic yellows virus
T5 sequence (protein, residues 1-98, tag omitted): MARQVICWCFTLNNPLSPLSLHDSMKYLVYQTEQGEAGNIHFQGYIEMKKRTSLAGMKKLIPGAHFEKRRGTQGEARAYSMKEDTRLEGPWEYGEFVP
Description: as §1

[6] = tested on: T6, Rep nickase domain of maize striate mosaic virus
T6 sequence (protein, residues 1-117, tag omitted): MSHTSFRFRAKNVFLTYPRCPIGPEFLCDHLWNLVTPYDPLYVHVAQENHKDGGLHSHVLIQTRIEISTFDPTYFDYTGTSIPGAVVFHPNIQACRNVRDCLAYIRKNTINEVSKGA
Description: as §1

[7] = tested on: T7, Rep nickase domain of porcine circovirus 2
T7 sequence (protein, residues 2-116, tag omitted): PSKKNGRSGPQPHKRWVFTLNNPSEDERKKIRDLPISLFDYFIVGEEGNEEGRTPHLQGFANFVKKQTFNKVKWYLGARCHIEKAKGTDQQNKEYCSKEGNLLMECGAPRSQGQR
Description: as §1

[8] = tested on: T8, Rep nickase domain of tomato yellow leaf curl virus
T8 sequence (protein, residues 1-136, tag omitted): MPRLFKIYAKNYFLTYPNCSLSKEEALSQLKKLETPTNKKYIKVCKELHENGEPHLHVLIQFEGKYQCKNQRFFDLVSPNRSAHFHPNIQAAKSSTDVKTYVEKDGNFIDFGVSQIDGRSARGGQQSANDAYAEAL
Description: as §1

[9] = tested on: T9, Rep nickase domain of wheat dwarf virus
T9 sequence (protein, residues 1-137, tag omitted): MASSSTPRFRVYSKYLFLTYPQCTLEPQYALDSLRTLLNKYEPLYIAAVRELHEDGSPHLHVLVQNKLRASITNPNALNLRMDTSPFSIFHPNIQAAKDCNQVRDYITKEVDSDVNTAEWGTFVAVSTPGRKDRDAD
Description: as §1

Which results are given for AGGAAAG?
uncleaved DNA left (log2) [1]: -0.0655; uncleaved DNA left (log2) [2]: -0.00533; uncleaved DNA left (log2) [3]: -0.434; uncleaved DNA left (log2) [4]: -0.296; uncleaved DNA left (log2) [5]: -0.0851; uncleaved DNA left (log2) [6]: -0.863; uncleaved DNA left (log2) [7]: 0.0892; uncleaved DNA left (log2) [8]: -0.00127; uncleaved DNA left (log2) [9]: 0.0188

Which results are given for GATAGCA?
uncleaved DNA left (log2) [1]: -0.0341; uncleaved DNA left (log2) [2]: -0.0128; uncleaved DNA left (log2) [3]: -0.053; uncleaved DNA left (log2) [4]: 0.132; uncleaved DNA left (log2) [5]: -0.0398; uncleaved DNA left (log2) [6]: -0.0604; uncleaved DNA left (log2) [7]: -0.0104; uncleaved DNA left (log2) [8]: -0.0833; uncleaved DNA left (log2) [9]: 0.00819

How did the “uncleaved DNA left (log2)” value [1] turn out when GTTTGCT was run?
The value was -0.139.

And the “uncleaved DNA left (log2)” value [2]?
Its value is -0.0561.

And the “uncleaved DNA left (log2)” value [3]?
Its value is -0.101.

And the “uncleaved DNA left (log2)” value [4]?
Its value is -0.195.

And the “uncleaved DNA left (log2)” value [5]?
The value was 0.11.

And the “uncleaved DNA left (log2)” value [6]?
The value was -0.595.

What about the “uncleaved DNA left (log2)” value [7] of the same sequence?
Its value is -0.505.

What about the “uncleaved DNA left (log2)” value [8] of the same sequence?
The value was 0.00734.

What about the “uncleaved DNA left (log2)” value [9] of the same sequence?
Its value is -0.00391.

With TCTCTTG as the sequence, how does the “uncleaved DNA left (log2)” value [1] read?
Its value is -0.0344.

What about the “uncleaved DNA left (log2)” value [2] of the same sequence?
The value was -0.0599.

And the “uncleaved DNA left (log2)” value [3]?
The value was -0.225.

And the “uncleaved DNA left (log2)” value [4]?
Its value is -1.42.

What about the “uncleaved DNA left (log2)” value [5] of the same sequence?
Its value is 0.024.

And the “uncleaved DNA left (log2)” value [6]?
The value was -0.95.

What about the “uncleaved DNA left (log2)” value [7] of the same sequence?
Its value is 0.0749.

And the “uncleaved DNA left (log2)” value [8]?
Its value is 0.0524.

And the “uncleaved DNA left (log2)” value [9]?
The value was -0.0993.

Which results are given for GCCGGGG?
uncleaved DNA left (log2) [1]: 0.0904; uncleaved DNA left (log2) [2]: -0.0453; uncleaved DNA left (log2) [3]: 0.74; uncleaved DNA left (log2) [4]: 1.3; uncleaved DNA left (log2) [5]: -0.0181; uncleaved DNA left (log2) [6]: 1.93; uncleaved DNA left (log2) [7]: 0.181; uncleaved DNA left (log2) [8]: -0.125; uncleaved DNA left (log2) [9]: 0.0797

Which results are given for GAATCTC?
uncleaved DNA left (log2) [1]: -0.172; uncleaved DNA left (log2) [2]: -0.00856; uncleaved DNA left (log2) [3]: -2.52; uncleaved DNA left (log2) [4]: -2.2; uncleaved DNA left (log2) [5]: 0.0663; uncleaved DNA left (log2) [6]: 0.289; uncleaved DNA left (log2) [7]: -0.615; uncleaved DNA left (log2) [8]: 0.0459; uncleaved DNA left (log2) [9]: -1.22

For AAACTTG, which “uncleaved DNA left (log2)” value [1] is on record?
The value was 0.0229.

What about the “uncleaved DNA left (log2)” value [2] of the same sequence?
The value was 0.0476.

And the “uncleaved DNA left (log2)” value [3]?
Its value is -0.317.

And the “uncleaved DNA left (log2)” value [4]?
The value was -1.59.

And the “uncleaved DNA left (log2)” value [5]?
Its value is 0.141.

What about the “uncleaved DNA left (log2)” value [6] of the same sequence?
Its value is -0.581.

What about the “uncleaved DNA left (log2)” value [7] of the same sequence?
The value was 0.161.

What about the “uncleaved DNA left (log2)” value [8] of the same sequence?
Its value is 0.0828.

What about the “uncleaved DNA left (log2)” value [9] of the same sequence?
The value was 0.00203.

How did the “uncleaved DNA left (log2)” value [1] turn out when GGGCTGT was run?
The value was 0.09.

What about the “uncleaved DNA left (log2)” value [2] of the same sequence?
The value was 0.105.

And the “uncleaved DNA left (log2)” value [3]?
The value was 0.828.

What about the “uncleaved DNA left (log2)” value [4] of the same sequence?
Its value is 1.82.

What about the “uncleaved DNA left (log2)” value [5] of the same sequence?
Its value is -0.0256.

What about the “uncleaved DNA left (log2)” value [6] of the same sequence?
The value was 2.2.

What about the “uncleaved DNA left (log2)” value [7] of the same sequence?
The value was 0.211.

And the “uncleaved DNA left (log2)” value [8]?
The value was 0.0685.

And the “uncleaved DNA left (log2)” value [9]?
The value was 0.221.
